Laboratory results: the antibiotic and cytotoxicity screens of Wong et al. (2023)
This is one part of the list.

Legend:
[1] = test system: HSkMC (human skeletal muscle cells); assay: cytotoxicity call (relative viability < 0.9); conditions: 10 µM
[2] = test system: HepG2; assay: cytotoxicity call (relative viability < 0.9); conditions: 10 µM
[3] = test system: S. aureus RN4220; assay: growth inhibition call (relative growth <= 0.2); conditions: 50 µM

| Structure (SMILES) | cytotoxicity call [1] | cytotoxicity call [2] | growth inhibition call [3] |
| --- | --- | --- | --- |
| CC/N=c1\nc(NCC)[nH]c(=S)[nH]1 | inactive | inactive | inactive |
| C[C@H](CO)N1C[C@H](C)[C@H](CN(C)Cc2ccc(C(F)(F)F)cc2)Oc2c(NC(=O)NC3CCCCC3)cccc2C1=O | inactive | inactive | inactive |
| COCC(=O)NS(=O)(=O)c1ccccc1 | inactive | inactive | inactive |
| COc1ccccc1CNC(=O)C[C@@H]1C[C@H]2c3cc(NC(=O)Nc4ccc(C(F)(F)F)cc4)ccc3O[C@H]2[C@H](CO)O1 | inactive | inactive | inactive |
| C[C@@H]1CCCCO[C@H](CN(C)Cc2ccc(Cl)c(Cl)c2)[C@@H](C)CN([C@H](C)CO)C(=O)c2cc(NC(=O)NC3CCCCC3)ccc2O1 | inactive | inactive | inactive |
| O=C(O)C(O)C(O)(Cc1ccc(O)cc1)C(=O)O (stereo unspecified) | inactive | inactive | inactive |
| C[C@@H]1CN([C@@H](C)CO)C(=O)c2cc(NS(=O)(=O)c3ccccc3)ccc2O[C@@H](C)CCCCO[C@@H]1CN(C)S(=O)(=O)c1cn(C)cn1 | inactive | inactive | inactive |
| Cc1noc(C)c1NC(=O)Nc1ccc2c(c1)C(=O)N([C@H](C)CO)C[C@H](C)[C@@H](CN(C)Cc1ccccc1)OCCCC[C@H](C)O2 | inactive | inactive | inactive |
| C[C@H](O)C#Cc1cnc2c(c1)C(=O)N([C@@H](C)CO)C[C@@H](C)[C@H](CN(C)Cc1cncnc1)O2 | inactive | inactive | inactive |
| COCCOC(=O)N1C(=O)[C@@]2(c3cc(C#CC4=CCCCC4)ccc31)[C@H](C(=O)N1CCc3cc(OC)c(OC)cc3C1)[C@H]1C(=O)O[C@H](c3ccccc3)[C@H](c3ccccc3)N1[C@@H]2c1ccc(O)cc1 | inactive | inactive | inactive |
| C[C@H](CO)N1C[C@H](C)[C@H](CN(C)C(=O)CCC(F)(F)F)OCCCC[C@H](C)Oc2ccc(NC(=O)NC3CCCCC3)cc2C1=O | inactive | inactive | inactive |
| Cc1[nH]c(/C=C2\C(=O)Nc3ccc(S(=O)(=O)Cc4c(Cl)cccc4Cl)cc32)c(C)c1C(=O)N1CCC[C@@H]1CN1CCCC1 | active | active | inactive |
| CN(C)CCCNC(=O)C[C@H]1C=C[C@@H](NS(=O)(=O)c2ccccc2)[C@@H](CO)O1 | inactive | inactive | inactive |
| CN1[C@@H]2c3ccc(-c4ccccc4)c(=O)n3C[C@H]1[C@H](CO)[C@H]2C(=O)NCCCN1CCOCC1 | inactive | inactive | inactive |
| Nc1ccc(CO)cn1 | inactive | inactive | inactive |
| CC(C)(/N=N/C(C)(C)C(=N)N)C(=N)N | inactive | inactive | inactive |
| C[C@@H]1CN([C@H](C)CO)C(=O)c2cc(NS(=O)(=O)c3cn(C)cn3)ccc2O[C@@H]1CN(C)CC1CC1 | inactive | inactive | inactive |
| CN(C)CCCCNC(=O)[C@@H]1C[C@@H]2C(=O)NCC(=O)N2[C@@H]1c1cccc(OCCO)c1 | inactive | inactive | inactive |
| Cc1nc(CN)c(C)o1 | inactive | inactive | inactive |

| Structure (SMILES) | cytotoxicity call [1] | cytotoxicity call [2] | growth inhibition call [3] |
| --- | --- | --- | --- |
| CN(C)Cc1cn(CC[C@@H]2CC[C@@H](NS(=O)(=O)c3ccccc3)[C@H](CO)O2)nn1 | inactive | inactive | inactive |
| CN(C)CCC(c1ccc(Cl)cc1)c1ccccn1.O=C(O)C=CC(=O)O (stereo unspecified) | inactive | active | inactive |
| CN(C)CCCCNC(=O)[C@H]1C[C@H]2C(=O)N[C@@H](CCCCN)C(=O)N2[C@H]1c1cccc(OCCO)c1 | inactive | inactive | inactive |
| CN1CCN(C(=O)C[C@H]2CC[C@@H]3[C@H](COC[C@@H](O)CN3Cc3ccc(Oc4ccccc4)cc3)O2)CC1 | inactive | active | inactive |
| C[C@H]1CN([C@@H](C)CO)C(=O)c2cccc(NC(=O)NC3CCCCC3)c2O[C@H]1CN(C)C(=O)Nc1ccc(C(F)(F)F)cc1 | active | active | inactive |
| Cc1noc(C)c1NC(=O)Nc1ccc2c(c1)C(=O)N([C@@H](C)CO)C[C@H](C)[C@H](CN(C)S(=O)(=O)c1cn(C)cn1)O2 | inactive | inactive | inactive |
| C[N+](C)(C)CCCCCCNC(=O)[C@@H]1C[C@@H]2C(=O)N[C@@H](Cc3ccccc3)C(=O)N2[C@@H]1c1cccc(OCCO)c1 | inactive | inactive | inactive |
| CNC(=O)c1cnn(-c2nc(N)c3ncn([C@@H]4O[C@H](CO)[C@@H](O)[C@H]4O)c3n2)c1 | inactive | inactive | inactive |
| C[C@@H]1CN([C@H](C)CO)C(=O)c2cc(NC(=O)CCC(F)(F)F)ccc2O[C@H]1CN(C)S(C)(=O)=O | inactive | inactive | inactive |
| C[C@@H]1CN([C@@H](C)CO)C(=O)c2cc(NC(=O)C3CC3)ccc2O[C@H]1CN(C)S(=O)(=O)c1cccs1 | inactive | inactive | inactive |
| C[C@H]1CN([C@@H](C)CO)C(=O)c2cc(NC(=O)C3CC3)ccc2O[C@@H]1CN(C)S(=O)(=O)c1ccc(Cl)cc1 | inactive | inactive | inactive |
| C[C@H](CO)N1C[C@H](C)[C@@H](CN(C)S(=O)(=O)c2ccc(-n3cccn3)cc2)OCc2cnnn2CCCC1=O | inactive | inactive | inactive |
| CC(=O)OCO/N=[N+](\[O-])N1CCCC1 | inactive | inactive | inactive |
| CCS(=O)(=O)N1CC[C@]2(CC1)CN(CC1CCOCC1)[C@H](CO)c1c2c2ccc(cc2n1C)OC | inactive | inactive | inactive |
| CC(N)C12CC3CC(CC(C3)C1)C2.Cl (stereo unspecified) | inactive | inactive | inactive |
| Cc1noc(C)c1S(=O)(=O)N(C)C[C@H]1OCCCC[C@H](C)Oc2ccc(NC(=O)Nc3cccc4ccccc34)cc2C(=O)N([C@H](C)CO)C[C@@H]1C | inactive | inactive | inactive |
| COc1cccc(NC(=O)N2C[C@@H](O)COC[C@H]3O[C@H](CC(=O)NCc4ccccc4F)CC[C@@H]32)c1 | inactive | inactive | inactive |
| COc1ccc(S(=O)(=O)N(C)C[C@@H]2Oc3ccc(NC(=O)NC(C)C)cc3CC(=O)N([C@H](C)CO)C[C@@H]2C)cc1 | inactive | inactive | inactive |
| C[C@H]1CN([C@@H](C)CO)C(=O)Cc2cc(NS(=O)(=O)c3cn(C)cn3)ccc2O[C@H]1CN(C)C | inactive | inactive | inactive |

| Structure (SMILES) | cytotoxicity call [1] | cytotoxicity call [2] | growth inhibition call [3] |
| --- | --- | --- | --- |
| C[C@@H]1CN([C@@H](C)CO)C(=O)c2cccc(NS(C)(=O)=O)c2O[C@H]1CN(C)C(=O)Nc1ccc(C(F)(F)F)cc1 | inactive | inactive | active |
| O=C(CN1CCOCC1)NCC[C@H]1CC[C@H](NC(=O)Cc2ccccn2)[C@H](CO)O1 | inactive | inactive | inactive |
| CCCNC(=O)N[C@H]1C=C[C@@H](CC(=O)N2CCN(C)CC2)O[C@H]1CO | inactive | inactive | inactive |
| COc1cccc(S(=O)(=O)N(C)C[C@H]2Oc3cc(Br)ccc3S(=O)(=O)N([C@@H](C)CO)C[C@H]2C)c1 | inactive | inactive | inactive |
| C[C@H]1CN([C@@H](C)CO)C(=O)Cc2cc(NC(=O)Nc3ccc(C(F)(F)F)cc3)ccc2O[C@H]1CN(C)Cc1ccc(C(=O)O)cc1 | inactive | inactive | inactive |
| Cc1cc(C(=O)Nc2cccc3c2O[C@H](CN(C)C(=O)Nc2ccccc2)[C@@H](C)CN([C@@H](C)CO)C3=O)n(C)n1 | inactive | inactive | inactive |
| C[C@H](C[C@H](N)C(=O)O)C(=O)O | inactive | inactive | inactive |
| Cc1noc(C)c1NC(=O)N(C)C[C@H]1OCCCC[C@@H](C)Oc2ccc(NS(=O)(=O)c3ccc(Cl)cc3)cc2C(=O)N([C@H](C)CO)C[C@H]1C | inactive | inactive | inactive |
| C[C@@H]1CN([C@H](C)CO)C(=O)Cc2cc(NC(=O)Cc3ccccc3)ccc2O[C@@H]1CN(C)Cc1ccc(Cl)c(Cl)c1 | active | active | inactive |
| COCCNC(=O)[C@@H]1[C@@H](CO)[C@@H]2Cn3c(cccc3=O)[C@H]1N2S(=O)(=O)c1ccccc1C | inactive | inactive | inactive |
| C[C@@H]1CN([C@H](C)CO)C(=O)c2cc(NC(=O)Nc3ccc(C(F)(F)F)cc3)ccc2O[C@H]1CN(C)Cc1ccc(C(F)(F)F)cc1 | active | active | inactive |
| C[C@H]1CN([C@@H](C)CO)C(=O)c2cc(NS(=O)(=O)c3cccs3)ccc2O[C@@H]1CN(C)Cc1ccc(Oc2ccccc2)cc1 | inactive | inactive | inactive |
| C[C@@H]1CCCCO[C@H](CN(C)C(=O)Nc2ccc(F)cc2)[C@@H](C)CN([C@@H](C)CO)C(=O)c2cc(NC(=O)C3CCCCC3)ccc2O1 | inactive | inactive | inactive |
| C[C@@H]1CCCCO[C@@H](CN(C)Cc2ccc3c(c2)OCO3)[C@H](C)CN([C@@H](C)CO)C(=O)c2cc(NC(=O)Nc3cccc4ccccc34)ccc2O1 | inactive | inactive | inactive |
| C[C@@H]1CN([C@H](C)CO)C(=O)c2cccc(NC(=O)Nc3cccc4ccccc34)c2O[C@@H]1CN(C)C(=O)Nc1ccc2c(c1)OCO2 | inactive | inactive | inactive |
| C[C@@H]1CN([C@@H](C)CO)C(=O)Cc2cc(NC(=O)Nc3cccc4ccccc34)ccc2O[C@@H]1CN(C)C(=O)Nc1cccc2ccccc12 | inactive | inactive | inactive |
| C[C@H]1CN([C@@H](C)CO)C(=O)c2cc(NC(=O)Cn3cnnn3)ccc2O[C@@H]1CN(C)Cc1ccc(C(=O)Nc2ccccc2N)cc1 | inactive | inactive | inactive |
| C[C@@H]1CN([C@@H](C)CO)S(=O)(=O)c2ccc(C#CC3CC3)cc2O[C@H]1CN(C)Cc1ccc(F)cc1 | inactive | inactive | inactive |
| Cc1ccc(S(=O)(=O)Nc2ccc3c(c2)CC(=O)N([C@H](C)CO)C[C@@H](C)[C@H](CN(C)Cc2ccc(C(F)(F)F)cc2)O3)cc1 | inactive | inactive | inactive |
